Source: the supplement of paper PMC8728848
The list shows a part of the results.

What was measured:
Experiment in all cases: glycan array binding signal (z-score within array); higher = stronger binding
Details in all cases: glycan notation: IUPAC condensed, linker removed
[1] = biological target: Neu5Ac(a2-3)Gal(b1-4)GlcNAc(b1-3)[Neu5Ac(a2-3)Gal(b1-4)GlcNAc(b1-6)]GalNAc
Outline: (§1)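 Glycan array data were curated from 3228 arrays in the Consortium for Functional Glycomics database and kept only where the protein sequence was available. Glycan names were converted to IUPAC-condensed notation, and columns mapping to the same glycan were averaged. The binding signal is a within-array Z-score, averaged across arrays of the same protein sequence at different concentrations or buffers and across linkers. Negative Z-scores can be read as non-binding.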

[2] = biological target: Neu5Ac(a2-3)Gal(b1-4)GlcNAc(b1-6)GalNAc
Outline: as §1

[3] = biological target: Neu5Ac(a2-3)Gal(b1-4)GlcNAc(b1-6)[Gal(b1-3)]GalNAc
Outline: as §1

[4] = biological target: Neu5Ac(a2-3)Gal(b1-4)GlcNAc(b1-6)[Neu5Ac(a2-3)Gal(b1-3)]GalNAc
Outline: as §1

[5] = biological target: Neu5Ac(a2-3)Gal(b1-4)GlcNAc6S
Outline: as §1

[6] = biological target: Neu5Ac(a2-3)Gal(b1-4)[Fuc(a1-3)]GlcNAc
Outline: as §1

[7] = biological target: Neu5Ac(a2-3)Gal(b1-4)[Fuc(a1-3)]GlcNAc(b1-2)Man
Outline: as §1

[8] = biological target: Neu5Ac(a2-3)Gal(b1-4)[Fuc(a1-3)]GlcNAc(b1-3)Gal
Outline: as §1

[9] = biological target: Neu5Ac(a2-3)Gal(b1-4)[Fuc(a1-3)]GlcNAc(b1-3)Gal(b1-4)GlcNAc
Outline: as §1

[10] = biological target: Neu5Ac(a2-3)Gal(b1-4)[Fuc(a1-3)]GlcNAc(b1-3)Gal(b1-4)[Fuc(a1-3)]GlcNAc(b1-3)Gal(b1-4)[Fuc(a1-3)]GlcNAc
Outline: as §1

[11] = biological target: Neu5Ac(a2-3)Gal(b1-4)[Fuc(a1-3)]GlcNAc(b1-3)GalNAc
Outline: as §1

[12] = biological target: Neu5Ac(a2-3)Gal(b1-4)[Fuc(a1-3)]GlcNAc(b1-6)[Gal(b1-3)]GalNAc
Outline: as §1

[13] = biological target: Neu5Ac(a2-3)Gal(b1-4)[Fuc(a1-3)]GlcNAc(b1-6)[Neu5Ac(a2-3)Gal(b1-3)]GalNAc
Outline: as §1

[14] = biological target: Neu5Ac(a2-3)Gal(b1-4)[Fuc(a1-3)]GlcNAc6S
Outline: as §1

[15] = biological target: Neu5Ac(a2-3)Gal6S(b1-4)GlcNAc
Outline: as §1

[16] = biological target: Neu5Ac(a2-3)Gal6S(b1-4)[Fuc(a1-3)]GlcNAc
Outline: as §1

[17] = biological target: Neu5Ac(a2-3)GalNAc
Outline: as §1

[18] = biological target: Neu5Ac(a2-3)GalNAc(b1-4)GlcNAc
Outline: as §1

[19] = biological target: Neu5Ac(a2-3)[GalNAc(b1-4)]Gal(b1-4)Glc
Outline: as §1

[20] = biological target: Neu5Ac(a2-3)[GalNAc(b1-4)]Gal(b1-4)GlcNAc
Outline: as §1

[21] = biological target: Neu5Ac(a2-3)[GalNAc(b1-4)]Gal(b1-4)GlcNAc(b1-3)GalNAc
Outline: as §1

[22] = biological target: Neu5Ac(a2-3)[Neu5Ac(a2-6)]GalNAc
Outline: as §1

[23] = biological target: Neu5Ac(a2-6)Gal
Outline: as §1

[24] = biological target: Neu5Ac(a2-6)Gal(b1-3)GlcNAc(b1-3)[Gal(b1-4)GlcNAc(b1-6)]Gal(b1-4)Glc
Outline: as §1

[25] = biological target: Neu5Ac(a2-6)Gal(b1-4)Glc
Outline: as §1

[26] = biological target: Neu5Ac(a2-6)Gal(b1-4)GlcNAc
Outline: as §1

[27] = biological target: Neu5Ac(a2-6)Gal(b1-4)GlcNAc(b1-2)Man
Outline: as §1

[28] = biological target: Neu5Ac(a2-6)Gal(b1-4)GlcNAc(b1-2)Man(a1-3)Man(b1-4)GlcNAc(b1-4)GlcNAc
Outline: as §1

[29] = biological target: Neu5Ac(a2-6)Gal(b1-4)GlcNAc(b1-2)Man(a1-3)[Gal(b1-4)GlcNAc(b1-2)Man(a1-6)]Man(b1-4)GlcNAc(b1-4)GlcNAc
Outline: as §1

[30] = biological target: Neu5Ac(a2-6)Gal(b1-4)GlcNAc(b1-2)Man(a1-3)[GlcNAc(b1-2)Man(a1-6)]Man(b1-4)GlcNAc(b1-4)GlcNAc
Outline: as §1

B1: CC1G-10077 (Coprinopsis cinerea), A8NDT7 (protein)
chain: MALNEGVYWIRNSRFTNKVLDLDAANVAKGTSILDFNEHGTFNENHNQLWIVERFQSRDTYLIRSVHSNLVLDLSQGLSANGTPILCWTQHGGTNQQWRIEWVKDDNKTPLYRIVSVATGTAISHNEDDSSAYTVAWSVDDGPKQLWSFDPFVTPLLYRLRVKSTSRVLDLAAASADNGTLALAWEQHTAITKRNQLWWLPYRSGAEEYTIQCLETSTVADLSGGNSGNGTPIYGWQSHGGRNQQWKFEPTSDSGDYYHIKNVEGGSVMDAYMNDSQKRVGGWSNNGGDNQKWLLDPLPSPGPGWVLIQNGGTGKFLCSTPSGDIGTADGPETVYDYSVQWRFIQREYTGVYHVVNRATGAYLRQIGTSMPSIGLAEENDDELKDWWMLETYDNSEIGLASIISRWTGNVLDHYGGVSVQALDNNTENSYRSWAIIPARDWLTSFSLVNGQGGLCLAAQYAREETRLSTTANVNDFHAQWVFRKPSGSSGYTIQNKYNNHYVGGTSARWELVVCCNKYFGIRNTSTQKYLAIEDGQVTFQDQDMTDRKQCWELCSGRATDTSGNDYDLIYMDDDLLEVMIPWVGDKQGDLKHYIEKRATKKPPKDKGGWQLPAAGLIKKPKFNDIRQLLQELIEQWEWDVVNEEREQIQTLVSIDEAEARRLLGRRPHPDIVAAYQRSRSSTLFRIDRQGYFNIAGDRYVNIQGQYGDDSYFHIALPVGVRFGREQIRRFLRDSLDRSTSVTITPTTCKPPSGGPDYNRDPDSDGDNSWIKWTIAVVGTSAIKHSEL
glycan array binding signal (z-score) [1]: -0.45 | glycan array binding signal (z-score) [2]: 0.729 | glycan array binding signal (z-score) [3]: -0.387 | glycan array binding signal (z-score) [4]: -0.467 | glycan array binding signal (z-score) [5]: -0.457 | glycan array binding signal (z-score) [6]: -0.487 | glycan array binding signal (z-score) [7]: -0.454 | glycan array binding signal (z-score) [8]: -0.392 | glycan array binding signal (z-score) [9]: -0.421 | glycan array binding signal (z-score) [10]: -0.467 | glycan array binding signal (z-score) [11]: -0.382 | glycan array binding signal (z-score) [12]: -0.37 | glycan array binding signal (z-score) [13]: -0.48 | glycan array binding signal (z-score) [14]: -0.468 | glycan array binding signal (z-score) [15]: -0.369 | glycan array binding signal (z-score) [16]: -0.511 | glycan array binding signal (z-score) [17]: -0.484 | glycan array binding signal (z-score) [18]: -0.402 | glycan array binding signal (z-score) [19]: -0.393 | glycan array binding signal (z-score) [20]: -0.445 | glycan array binding signal (z-score) [21]: -0.444 | glycan array binding signal (z-score) [22]: -0.407 | glycan array binding signal (z-score) [23]: -0.42 | glycan array binding signal (z-score) [24]: 0.306 | glycan array binding signal (z-score) [25]: -0.474 | glycan array binding signal (z-score) [26]: -0.481 | glycan array binding signal (z-score) [27]: -0.535 | glycan array binding signal (z-score) [28]: -0.461 | glycan array binding signal (z-score) [29]: -0.186 | glycan array binding signal (z-score) [30]: -0.505
